Reference: paper PMC7819943, “Rice protein-binding microarrays: a tool to detect cis-acting elements near promoter regions in rice”
Some of the results follow.

What follows are sequences tested against T1, OsWOX13 (Oryza sativa, UniProt Q5QMM3 1-267) (assay: protein-binding microarray (RPBM); PBS, 2% BSA, 51.3 ng/ul salmon testes DNA, 50 uM zinc acetate, 200 nM TF, 25 C, 1 h; high values mean tight binding). Conditions: protein: recombinant; tags: N-terminal polyhistidine and DsRed monomer fusion (pET32a); label: CyDye5-dUTP incorporated in the synthesized complementary strand; 3' TTTTT single-stranded linker to array surface; dsDNA, one strand shown.
T1 sequence: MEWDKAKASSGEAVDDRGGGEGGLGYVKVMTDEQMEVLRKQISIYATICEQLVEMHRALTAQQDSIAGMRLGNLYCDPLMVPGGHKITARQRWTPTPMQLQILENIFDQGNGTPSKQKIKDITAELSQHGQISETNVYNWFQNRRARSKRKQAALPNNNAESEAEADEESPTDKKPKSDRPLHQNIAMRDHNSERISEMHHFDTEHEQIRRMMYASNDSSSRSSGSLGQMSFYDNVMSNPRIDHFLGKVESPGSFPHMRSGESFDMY
Method in brief: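 Using Ni–NTA, transcription factors fused N-terminally to polyhistidine and DsRed were purified after expression in E. coli BL21-CodonPlus. These were incubated at 200 nM with a blocked, double-stranded custom Agilent array for 1 h at 25 °C in a buffer containing 50 µM zinc acetate, and the array was washed. The binding signal is per-feature fluorescence intensity (arbitrary units) on an Axon 4000B scanner.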
“GTATGATTTGTTAGTAGTCTTTATTTTGTGTTGATGTTTTCGGAGTCACCTAGTGCAG” was tested, and the binding signal was 29300 fluorescence intensity (a.u.). “CCTAATGATCGATCCTTCCCACGTTCGAAGCTTCCCCTGTCGGAGTCACCTAGTGCAG” was tested, and the binding signal was 5110 fluorescence intensity (a.u.). With “GCTTCAATCTGAACCATTCATTTTAACAGCTAACCAACTTCGGAGTCACCTAGTGCAG” the binding signal was 4570 fluorescence intensity (a.u.). “GTGATTTGTTAATTGTTTCGCATTGTTCAATGTTAGTACACGGAGTCACCTAGTGCAG” was tested, and the binding signal was 36500 fluorescence intensity (a.u.). For “ATCAATTTAATCTTATATAATGGAGCCAAATAAGCCCATACGGAGTCACCTAGTGCAG”, the binding signal was 6630 fluorescence intensity (a.u.). In the case of “GTACACACGCCCTGCCAAATTGACTGACCGCATCCTCGTCCGGAGTCACCTAGTGCAG”, the binding signal is reported as 3730 fluorescence intensity (a.u.). In the case of “AAAGGGTTAATTTGTCAAATTTTCGGGCTTTAGTGAAAAGCGGAGTCACCTAGTGCAG”, the binding signal is reported as 12700 fluorescence intensity (a.u.). “TAGATTAGCTTATCAATGATTTGTTGCAAAATATCACACGCGGAGTCACCTAGTGCAG” was tested, and the binding signal was 31300 fluorescence intensity (a.u.). “AATAATTACTTATTATACTATTAATATATGGTCTCACCTGCGGAGTCACCTAGTGCAG” was tested, and the binding signal was 23300 fluorescence intensity (a.u.). In the case of “GTGAAATTGAGAGACAGGAGATGAACTTACTCCTTTCTTCCGGAGTCACCTAGTGCAG”, the binding signal is reported as 10800 fluorescence intensity (a.u.). “TTTCACAAATTGAAGCCCGGTGTGTTTAACCCCATAGCCACGGAGTCACCTAGTGCAG” was tested, and the binding signal was 17600 fluorescence intensity (a.u.). With “TGATAGATTAAAATATGTGCTAATTTATAGTTGTGTTATACGGAGTCACCTAGTGCAG” the binding signal was 3610 fluorescence intensity (a.u.). In the case of “TTATGACTGAAATTTAGAATGGTTCAAATCTGAAACAGTCCGGAGTCACCTAGTGCAG”, the binding signal is reported as 17400 fluorescence intensity (a.u.). In the case of “GGTGTTCCTAATGACTTAATGACTTAATGTTAGATACCCTCGGAGTCACCTAGTGCAG”, the binding signal is reported as 3190 fluorescence intensity (a.u.). With “ATGCAATCAGACCAAATTTATGTCATTTGGTGAGAAATGACGGAGTCACCTAGTGCAG” the binding signal was 7700 fluorescence intensity (a.u.). “TCATTATCTGATTAGTTTGTAATACTGTCTAACTCAGGAGCGGAGTCACCTAGTGCAG” was tested, and the binding signal was 11200 fluorescence intensity (a.u.). “TAACAATCATACTAATCATATCTATGCTAAGTATTACGCACGGAGTCACCTAGTGCAG” was tested, and the binding signal was 14400 fluorescence intensity (a.u.). For “ATTCATTGATGAGGTTTGCGTTTCCAAGGCCATCTGCATCCGGAGTCACCTAGTGCAG”, the binding signal was 3290 fluorescence intensity (a.u.). For “AATTCAGATTGATGAATGCAATTGCAAGGACAAATATTGCCGGAGTCACCTAGTGCAG”, the binding signal was 40200 fluorescence intensity (a.u.). For “TCAATTAATTTTATTCGATTCATAGCCTCGACATTACTAGCGGAGTCACCTAGTGCAG”, the binding signal was 12300 fluorescence intensity (a.u.). In the case of “ATATGATAAATTAGTAGTGTAATTACATTACAACTTACATCGGAGTCACCTAGTGCAG”, the binding signal is reported as 20400 fluorescence intensity (a.u.). For “AGATGGATTACTAATCCACATTCCAGTTAGCAACGCATTGCGGAGTCACCTAGTGCAG”, the binding signal was 3960 fluorescence intensity (a.u.). “TTGATCAAACTCGTCAGTTAATCACCAGTTGGAACAAGATCGGAGTCACCTAGTGCAG” was tested, and the binding signal was 5650 fluorescence intensity (a.u.). In the case of “AACCCTCAATCAATTCTGATGGCTCCAGAATGTGGAGTACCGGAGTCACCTAGTGCAG”, the binding signal is reported as 27200 fluorescence intensity (a.u.). “GATAAATTTAGATGTGGTAATCACATCTACCGTAGCACTTCGGAGTCACCTAGTGCAG” was tested, and the binding signal was 24700 fluorescence intensity (a.u.). With “CTTCAAAATTAAATTTGAAAATCCAAATTTTAGCTTTAGCCGGAGTCACCTAGTGCAG” the binding signal was 14400 fluorescence intensity (a.u.). “AACAAAACAAATTACAGATTCTGCCAGGAAACTGTGAGACCGGAGTCACCTAGTGCAG” was tested, and the binding signal was 4810 fluorescence intensity (a.u.). “TTAAATCTCAATCGTCATAATTTGGACCCATCACAATCTACGGAGTCACCTAGTGCAG” was tested, and the binding signal was 3250 fluorescence intensity (a.u.). For “AGATAATGATTTGACATTAATTGTCTATTGAGTTCTAAAACGGAGTCACCTAGTGCAG”, the binding signal was 30400 fluorescence intensity (a.u.). “TTATTGATTACTAAACTTTTATCAAGAAACAAGCATATGGCGGAGTCACCTAGTGCAG” was tested, and the binding signal was 30200 fluorescence intensity (a.u.). For “TACTATATAATTGCATTGTAGTTACACTATAACTATTACTCGGAGTCACCTAGTGCAG”, the binding signal was 5180 fluorescence intensity (a.u.). “ATCTATAATTAGAGAATGTTTACTATAGCATCACATAGGCCGGAGTCACCTAGTGCAG” was tested, and the binding signal was 27800 fluorescence intensity (a.u.). “TTAATTTTAAGATTGATTTTGAGATATTTTCAATGTAGTTCGGAGTCACCTAGTGCAG” was tested, and the binding signal was 42200 fluorescence intensity (a.u.). “ACCATCAATCAATCGATCGATCGATCGCGTCGCCATCGGCCGGAGTCACCTAGTGCAG” was tested, and the binding signal was 28200 fluorescence intensity (a.u.). For “AATATAACAAGTTTTAATTATATATCTGAATAAGTGTAGTCGGAGTCACCTAGTGCAG”, the binding signal was 7920 fluorescence intensity (a.u.). For “GCAGCCTTGAACCCTTGATTAGCCTTGTCATGTAAACCTACGGAGTCACCTAGTGCAG”, the binding signal was 4230 fluorescence intensity (a.u.). For “CCGTGTAATTTCCCTTTTAAAATTTCACCAAATTTGGTTGCGGAGTCACCTAGTGCAG”, the binding signal was 15100 fluorescence intensity (a.u.). In the case of “GCAAACTGAAAATAACCGTAACAAAGTAACACCATCATCTCGGAGTCACCTAGTGCAG”, the binding signal is reported as 3550 fluorescence intensity (a.u.). For “TTTGACAAAATTCAATCAAATGCTAAATTTATACCACAAACGGAGTCACCTAGTGCAG”, the binding signal was 31500 fluorescence intensity (a.u.). For “ACAAATGGCAAGTGTAATTGAGTAAGTTGTCAACTTGTGTCGGAGTCACCTAGTGCAG”, the binding signal was 9750 fluorescence intensity (a.u.). In the case of “GATGCCAATTATCGGCTTACAAATTTATTTGATACTTTAGCGGAGTCACCTAGTGCAG”, the binding signal is reported as 12600 fluorescence intensity (a.u.). With “TCGATTGAGACATCACCCCAAATCTTCCCCTAACTTTGCTCGGAGTCACCTAGTGCAG” the binding signal was 4550 fluorescence intensity (a.u.). “CTTAAATTTTGAAACAAATGGAGATCTTATATTGTATACACGGAGTCACCTAGTGCAG” was tested, and the binding signal was 10800 fluorescence intensity (a.u.). For “ATGGTTCTAATTTTAGAAGATTGGTGTGGCATTTACCTGACGGAGTCACCTAGTGCAG”, the binding signal was 10500 fluorescence intensity (a.u.). “TACATAATTACGTGCTACTAAGAATATATGTGATTTTGGTCGGAGTCACCTAGTGCAG” was tested, and the binding signal was 27400 fluorescence intensity (a.u.). For “ATAATCCCTAAATTAATAAATGGATATGCAGCCTAATAAGCGGAGTCACCTAGTGCAG”, the binding signal was 7480 fluorescence intensity (a.u.). “AAAATAAAATGGGATATAATTTAGTACAACGGATATGAACCGGAGTCACCTAGTGCAG” was tested, and the binding signal was 5600 fluorescence intensity (a.u.). For “GTTTGTATTATGTCTCTTAATTGACAGATGGCCTGTACCTCGGAGTCACCTAGTGCAG”, the binding signal was 30900 fluorescence intensity (a.u.). With “GGAGTGATTAGGGGAAAGAGTGAGGAAGGAAAGGAAAAGTCGGAGTCACCTAGTGCAG” the binding signal was 6070 fluorescence intensity (a.u.). With “GAAGATAATTTGTTACCAAGTCGGAGTTGGATTTGTACCACGGAGTCACCTAGTGCAG” the binding signal was 17400 fluorescence intensity (a.u.). In the case of “GAATTTTCATCAATGGTCCAGATTGATCAATCGCTATAGCCGGAGTCACCTAGTGCAG”, the binding signal is reported as 8690 fluorescence intensity (a.u.). For “GAAGCAAGGATTAATTTGGAATTGGATGAGGACGAGTTGACGGAGTCACCTAGTGCAG”, the binding signal was 3850 fluorescence intensity (a.u.). In the case of “GTTGGATTGAAACGGCCTGGGATTTCATTTTGGACCGGATCGGAGTCACCTAGTGCAG”, the binding signal is reported as 24700 fluorescence intensity (a.u.). In the case of “CTAGGACAAATTGAGAGGAATCGCCTCCTAGAAATAGTCACGGAGTCACCTAGTGCAG”, the binding signal is reported as 3150 fluorescence intensity (a.u.).
